# Measured values: patent US20220127334A1 (Takeda / Millennium, published 2022)
# Biological target: trypsin (Examples 7 and 8, source not stated)
# Test: cell-based or functional assay
binder,measurement,value
UTI-Fc1 (SEQ ID NO:1) (Fc fusion) AVLPQEEEGSGGGQLVTEVTKKEDSCQLGYSAGPCMGMTSRYFYNGTSMACETFQYGGCMGNGNNFVTEKECLQTCRTVAACNLPIVRGPCRAFIQLWAFDAVKGKCVLFPYGGCQGNGNKFYSEKECREYCGVPGDGDEELLGSGGGG[human IgG1 Fc omitted here],IC50 of inhibition of trypsin-induced IL-6 production in BEAS2B cells,0.41 µg/mL
